# Data: PubChem BioAssay AID686979 (National Center for Advancing Translational Sciences (NCATS), 2013)
# Screen size: about 420,000 compounds; about 50,000 (12%) were called active. This list was built around the results that the source calls inconclusive (neither active nor inactive); the mix of calls is not that of the screen. The call rests on the fitted dose curve; in most records, active means well fitted inhibition curve with a large enough effect; inconclusive means small, poorly fitted or top-dose-only effect; inactive means flat fitted curve, though single readings scatter. Potencies of inconclusive entries are left out as doubtful fits.
# Assay: qHTS for Inhibitors of human tyrosyl-DNA phosphodiesterase 1 (TDP1): qHTS in cells in presence of CPT; further: nearly all actives have a fitted effect of over 55% in size
# Details: chicken DT40 Tdp1-/-;hTDP1 cells + 20 nM CPT, ATP luminescence, 48 h; activity change, negative = growth inhibition: at 46.2 µM (top of the series)
# How it was run: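 Cell growth measured by CellTiter-Glo luminescence after a minimum 48 h, 37 C compound exposure with 20 nM CPT in Tdp1-knockout DT40 cells stably expressing hTDP1, seeded 400/well; qHTS titration format.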
# On the % scale 0 is the no-effect control and ±100 the full control effect; potency means the concentration at half of the fitted maximal effect; tags describe the fitted curve by direction and shape.
Compound,Potency,"activity change, negative = growth inhibition"
CCc1cccc(NC(=O)CS(=O)Cc2nc(-c3ccc(C)cc3)oc2C)c1 (stereo unspecified),"inconclusive [inhibitor, single point]",
CC1(C)C(=O)Nc2ccccc2N1C(=O)COC(=O)c1cccnc1,,inactive: 3.9%
Cc1ccc(Cl)cc1N1CCN(S(=O)(=O)c2ccc(-c3ccc(=O)[nH]n3)o2)CC1,"inconclusive [inhibitor, partial curve]",
CCOc1cc(CNn2c(C)nnc2SCC(=O)NC(C)(C)C)ccc1OCC(=O)NC(C)(C)C,"inconclusive [inhibitor, partial curve]",
CN(C)CCNC(=O)c1cc2c(s1)-c1ccccc1OC2,active: 16.4 µM,
O=C(Cc1ccccc1)NCC(=O)OCC(=O)c1cccc([N+](=O)[O-])c1,"inconclusive [inhibitor, single point]",
CCn1c(C)nc2cc(C(=O)N/N=C/c3ccccc3C)ccc21,,inactive: 10.6%
O=C(NCC1CCCO1)C1CCN(C2CCN(C3CCCCCC3)CC2)CC1 (stereo unspecified),,inactive: -17.5%
O=C(CSc1ccc2nnc(-c3cccc(F)c3)n2n1)NCC1CCCO1 (stereo unspecified),,inactive: 2.6%
BrC(=C\c1ccccc1)/C=N/Nc1ccc2nncn2n1,"inconclusive [inhibitor, single point]",
Clc1ccc(-c2noc(-c3cccnc3N3CCN(c4ccccc4)CC3)n2)cc1,,inactive: -32.7%
O=C(COc1ccccc1)Nc1nnc(SCc2cc(=O)c3ccccc3[nH]2)s1,,inactive: -23.4%
O=C(c1nn2c(C(F)(F)F)cc(-c3cccs3)nc2c1Cl)N1CCCc2ccccc21,active: 16.4 µM,
COC(=O)c1ccc(NC(=O)CC2C(=O)N(c3ccc(C)cc3)C(=O)N2Cc2ccc(OC)cc2)cc1 (stereo unspecified),"inconclusive [inhibitor, single point]",
CS(=O)(=O)c1ccc(-c2cnc3c(NC=O)cc(-c4ccsc4)cn23)cc1,active: 23.1 µM,
COc1ccc(-c2nn(Cc3ccccc3)cc2C(=O)N2CCN(c3ncccn3)CC2)cc1,"inconclusive [inhibitor, single point]",
CC(=O)c1c(COC(=O)c2ccncc2)nc2ccccc2[n+]1[O-],,inactive: 29.6%
COc1ccc(C(C)C)cc1S(=O)(=O)NC1CCCC1,"inconclusive [inhibitor, single point]",
C=CCSc1nnc(NC(=O)c2cccc(S(=O)(=O)N3CCOCC3)c2)s1,"inconclusive [inhibitor, single point]",
Oc1cc(NCc2cccnc2)ccc1-c1nc2ccccc2o1,"inconclusive [inhibitor, single point]",
O=C1c2cccc3cccc(c23)C(=O)N1CCc1ccccc1,"inconclusive [inhibitor, partial curve, poor fit]",
COc1ccc(S(=O)(=O)N2CCOCC2)cc1NC(=O)c1ccc(OC(F)F)cc1,"inconclusive [inhibitor, single point]",
COc1ccc2cc(C(=O)C3CCCN(C(=O)CSc4nnc(C)o4)C3)ccc2c1 (stereo unspecified),active: 18.4 µM,
Cc1ccn2c(Nc3ccccc3C)c(-c3cccnc3)nc2c1,active: 16.4 µM,

Compound,Potency,"activity change, negative = growth inhibition"
NC(=O)C1(N2CCCCC2)CCN(C(=S)Nc2ccc(S(N)(=O)=O)cc2)CC1,,inactive: 0.128%
CC1=C(SCc2ccccc2)C(=O)c2ccccc2C1=O,active: 2.59 µM,
N#CCCn1nc(-c2ccc(Br)cc2)cc1Nc1ccccc1NC(=O)C(F)(F)F,"inconclusive [inhibitor, single point]",
Fc1ccc(Nc2c(-c3ccco3)nc3ccccn23)cc1,active: 14.6 µM,
COc1ccc(C(=O)C(Sc2nnc(C)c(=O)[nH]2)c2ccc(OC)cc2)cc1 (stereo unspecified),,inactive: -7.46%
O=C(CC(NCc1cccnc1)C(=O)O)Nc1ccc(O)cc1 (stereo unspecified),,inactive: 10.1%
CCOC(=O)C1NN=C(C(=O)c2ccc(C)cc2)C1c1ccc(C)cc1 (stereo unspecified),active: 18.4 µM,
COc1cccc(NC(=S)/C(=C(\[O-])c2ccc([N+](=O)[O-])cc2)[n+]2ccccc2)c1,"inconclusive [inhibitor, single point]",
O=C(CCSc1nc2cc(Cl)ccc2o1)N1CCOCC1,"inconclusive [inhibitor, full curve, poor fit]",
CCN(CC)S(=O)(=O)c1cc(C(=O)N2CCc3ccccc32)ccc1Cl,"inconclusive [inhibitor, single point]",
O=c1c2nnn(-c3cccc(F)c3)c2ncn1Cc1ccccn1,,inactive: 1.82%
O=c1[nH]c2cc(Br)cnc2nc1/C=C(\O)c1ccc(F)cc1,"inconclusive [inhibitor, single point]",
COc1cc2c(cc1OC)C(c1c(-c3c(Cl)cccc3Cl)noc1C)=NCC2,active: 23.1 µM,
CCCCOc1ccc(C(=O)NCC(=O)NC2CCN(Cc3ccccc3)CC2)cc1,active: 23.1 µM,
Cc1ccc(C2c3[nH]c4ccccc4c3CCN2C(=O)CCc2ccccc2)cc1 (stereo unspecified),"inconclusive [inhibitor, single point]",
CC(C)(C)CC(=O)Nc1cc(S(=O)(=O)N2CCCCCC2)ccc1Cl,"inconclusive [inhibitor, single point]",
COc1ccc(OCc2cc(C(=O)N3CCC(OC)CC3)no2)c2ccccc12,active: 23.1 µM,
Cc1ccc(NC(=O)Cn2cnc3sc(C(=O)NCc4ccco4)c(C)c3c2=O)cc1Cl,"inconclusive [inhibitor, single point]",
CCOc1ccc(CNC(=O)Cc2ccc(NC(=O)N3CCCCc4ccccc43)cc2)cc1OC,"inconclusive [inhibitor, single point]",
CC(C)(C)OC(=O)[C@H](Cc1ccccc1)NC(=O)c1nc[nH]c1C(=O)NCC(=O)OCc1ccccc1,"inconclusive [inhibitor, single point]",
O=C(CCCc1ccccc1)NCCS(=O)(=O)N1CCN(c2ccccc2)CC1,"inconclusive [inhibitor, full curve, poor fit]",
CC1C(=O)N(Cc2cn(Cc3ccco3)nn2)CCS(=O)(=O)N1Cc1ccc(-c2cccnc2)cc1 (stereo unspecified),"inconclusive [inhibitor, single point]",
Cc1cc(=O)oc2cc(OCC(=O)Nc3c(C(C)C)cccc3C(C)C)ccc12,"inconclusive [inhibitor, single point]",
CC1CN(CCOCCOc2ccccc2-c2ccccc2)CC(C)O1 (stereo unspecified),"inconclusive [inhibitor, single point]",

Compound,Potency,"activity change, negative = growth inhibition"
COC(=O)[C@]1(Cc2ccccc2)N[C@H](CN(C)C(C)=O)[C@@H]2C(=O)N(Cc3ccccc3)C(=O)[C@@H]21,,inactive: -6.49%
O=C(CSc1ccccn1)Nc1ccc2c(c1)C(=O)c1ccccc1C2=O,"inconclusive [inhibitor, partial curve, poor fit]",
Cc1cc(NCCCN2CCOCC2)n2ncc(-c3ccccc3)c2n1,"inconclusive [inhibitor, single point]",
CCc1ccc(C(=O)C(C)OC(=O)c2cccc(S(=O)(=O)N3CCOCC3)c2)cc1 (stereo unspecified),,inactive: -0.704%
CCc1nc2c(OCc3c(C)noc3C)cccn2c1N(C)C(=O)c1ccccc1F,,inactive: -12.3%
Cc1c(C(=O)N(C)Cc2cccc(F)c2)oc2c(Cl)cccc12,"inconclusive [inhibitor, single point]",
CCOc1ccc(C2/C(=C(\O)c3cccc(OC)c3)C(=O)C(=O)N2c2ccccn2)cc1OC (stereo unspecified),,inactive: -17%
Cc1ccc2[nH]c(=O)c(CN(CCCN(C)C)C(=O)Nc3ccc(F)cc3)cc2c1,"inconclusive [inhibitor, partial curve]",
Cc1ccc(NC(=O)C(=O)NCCN2CCN(C(=O)C(c3ccccc3)c3ccccc3)CC2)cc1,active: 18.4 µM,
CCN(CC)CCn1c2c(c(SCC(=O)Nc3nc(C)cs3)nc1=O)CCCC2,,inactive: 20.1%
Cc1cccc(NC(=O)COc2coc(CN3CCN(Cc4ccccc4)CC3)cc2=O)c1,,inactive: -25.1%
Cc1ccc(Cc2c(-c3ccc(C)cc3)nc3cc(C)ccn23)cc1,active: 20.6 µM,
O=c1c(C=NCC2CCCO2)c(-c2ccccc2)[nH]n1-c1ccc([N+](=O)[O-])cc1 (stereo unspecified),"inconclusive [inhibitor, partial curve, poor fit]",
CCCCN(C(C)=O)c1c(CC)nc2ccc(C(=O)NCCCN(C)C)cn12,"inconclusive [inhibitor, partial curve]",
CCCOc1cc(C)c(S(=O)(=O)NC2CC(C)(C)NC(C)(C)C2)cc1C,"inconclusive [inhibitor, single point]",
O=C(c1ccc(CNS(=O)(=O)c2ccc(Br)cc2)cc1)N1CCCCCC1,active: 23.1 µM,
CCOP(=O)(OCC)C(C)(C)NC(=O)Nc1ccc(Cl)c(Cl)c1,,inactive: -17.5%
CCCCC(=O)Nc1nc(C)c(-c2csc(Nc3ccccc3OC)n2)s1,active: 23.1 µM,
COCOCCn1cc(CN2CCS(=O)(=O)N(Cc3ccc(-c4ccc(Cl)cc4)cc3)C(CC(C)C)C2=O)nn1 (stereo unspecified),"inconclusive [inhibitor, single point]",
COc1cc(OC)cc(C(=O)N2CCN(c3ccccc3F)CC2)c1,,inactive: -9.2%
NC(=O)C1CCCN(C(=O)CNC(=O)C23CC4CC(CC(C4)C2)C3)C1 (stereo unspecified),,inactive: -10.8%
CC(=O)C(C)Oc1ccc2c3c(c(=O)oc2c1C)CCCC3 (stereo unspecified),"inconclusive [inhibitor, partial curve]",
Cc1ccccc1-n1c(C)cc(/C=C(\C#N)C(=O)NCC2CCCO2)c1C (stereo unspecified),"inconclusive [inhibitor, partial curve]",
